Laboratory results reported in PubChem BioAssay AID360 (National Center for Advancing Translational Sciences (NCATS), 2006).
In all, about 48,000 compounds went through this assay and about 550 (1.1%) were called active. About 4% were inconclusive and are not listed. Rule as the data show it: active = potency below about 15 µM; inconclusive = mostly about 16 µM to 33 µM; inactive = weaker than that. Some of the results follow.

Each compound was assayed against Lysosomal acid glucosylceramidase (Homo sapiens) (UniProt P04062) (assay: Glucocerebrosidase). Settings: purified enzyme, resorufin glucoside fluorescence (screen aimed at inhibitors), 20 min.
Chain of UniProt P04062 (P04062 whole entry, looked up): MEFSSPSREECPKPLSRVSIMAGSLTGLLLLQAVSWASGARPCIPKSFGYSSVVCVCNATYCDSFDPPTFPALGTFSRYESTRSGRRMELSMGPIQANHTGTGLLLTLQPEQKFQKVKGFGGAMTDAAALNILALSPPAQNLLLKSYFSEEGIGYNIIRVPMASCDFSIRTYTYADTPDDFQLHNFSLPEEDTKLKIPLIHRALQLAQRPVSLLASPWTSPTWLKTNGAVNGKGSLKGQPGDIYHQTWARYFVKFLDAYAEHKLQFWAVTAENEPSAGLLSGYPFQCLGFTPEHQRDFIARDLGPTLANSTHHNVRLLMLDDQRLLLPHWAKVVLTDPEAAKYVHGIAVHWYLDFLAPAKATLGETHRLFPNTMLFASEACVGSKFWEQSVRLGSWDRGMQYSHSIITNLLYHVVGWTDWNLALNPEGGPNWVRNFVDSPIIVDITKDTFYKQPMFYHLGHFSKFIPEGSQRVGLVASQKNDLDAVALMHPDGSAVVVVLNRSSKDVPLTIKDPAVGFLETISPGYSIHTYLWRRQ
Text: NCGC Assay Overview: Beta-glucocerebrosidase catalyzes the hydrolysis of beta-glucocerebroside to glucose and ceramide. The inherited deficiency of beta-glucocerebrosidase results in Gaucher disease, which is characterized by a wide variety of symptoms including hepatosplenomegaly, anemia, thrombocytopenia, bony lesions and bone marrow infiltration with characteristic storage cells, known as Gaucher cells. There are also forms of the disorder affecting the central nervous system. Patients with the same genotypes can manifest with diverse clinical presentations and it is believed that improper folding and trafficking of beta-glucocerbrosidase may contribute to the phenotypes observed. Low molecular weight molecules, acting as chaperones, may potentially restore trafficking of misfolded beta-glucocerebrosidase from the endoplasmic reticulum to the lysosomes, thereby enhancing functional lysosomal beta-glucocerebrosidase activity. Using normal beta-glucocerebrosidase, an assay was developed to screen for small molecule inhibitors that could potentially act as molecular chaperones on the mutant forms [developed with NIH investigator Dr. Ellen Sidransky's laboratory]. Two pro-fluorescent substrates were chosen for two screens against a small molecule library. One beta-glucocerebrosidase assay used Resorufin beta-D-Glucopyranoside (Marker Gene Technology Inc.), generating a red fluorescent product. The second assay used Fluorescein di-beta-D-Glucopyranoside, generating a blue fluorescent product. […] The IC50 values of Conduritol B Epoxide, a known glucocerebrosidase inhibitor, were determined to be 87.5 uM and 117 uM, respectively. The use of two difference pro-fluorescent substrates in the screens helped to eliminate false positives. All compounds were screened in a titration series resulting in AC50s (e.g., IC50s or EC50s).
NCGC Assay Protocol Summary: Both enzyme and substrate were diluted in buffer composed of 50mM citric acid/KH2PO4, 10mM sodium taurocholate and 0.01% tween-20 at pH 5.9. The final concentration of the enzyme was 0.2 nM in both assays. The compound library was titrated in 7 to 15 concentrations for the primary screens with a final concentration ranging from 0.6 nM to 50 uM. This particular assay protocol is for the "red" substrate, and it was performed in 1536-well plate format as follows: Red fluorescence substrate assay: 2 uL enzyme 23 nL compound 1 uL substrate (final concentration of 30 uM) Incubate at room temperature (RT) for 20 minutes Read the plate in Viewlux plate reader (Ex=548(7) and Em=600(10)).
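Also: the screen sought inhibitors.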
Potency is read from the fitted curve at half-maximal effect.

Potency, inactive:
COc1ccc(N2CCN(C(CNC(=O)c3ccc4c(c3)OCO4)c3cccnc3)CC2)cc1 (stereo not given) > 76.9 µM
CC12CCCCC1c1ccccc1C(=NCC(=O)O)N2 (stereo not given)
C=CCn1c(CNC(=O)c2ccccc2C)nnc1SCC(=O)NC1CCCC1 > 76.9 µM
N#CC1(c2ccccc2)CCCN1C(=O)c1ccc(Br)o1 (stereo not given) > 76.9 µM
Cc1cc(NS(=O)(=O)Cc2ccccc2)no1 > 76.9 µM
COc1ccc(CN2C(=O)C(O)(CC(=O)c3c(C)n[nH]c3C)c3ccccc32)cc1OC (stereo not given) > 76.9 µM
CCc1ccccc1-n1cnc2cc(C(=O)O)ccc21 > 76.9 µM
Cc1noc(C)c1CSCC(=O)OCC(=O)N1CC(=O)Nc2ccccc21 > 76.9 µM
CN(C)CCNC(=O)C(C(=O)c1ccccc1)n1ccccc1=O (stereo not given) > 76.9 µM
COc1ccc(C(=O)C2CCN(C(=O)c3ccco3)CC2)cc1 > 76.9 µM
CN(c1cc(=O)n2ccccc2n1)C1CCCCC1 > 76.9 µM
COCc1[nH]nc2c1C(c1c(F)cccc1Cl)C(C#N)=C(N)O2 (stereo not given) > 76.9 µM
COC(=O)[C@H](CCSC)NC(=O)Nc1ccc(C)cc1 > 76.9 µM
Cc1nc2c(cc(Oc3ccc(S(=O)(=O)N4CCOCC4)cn3)c3ccsc32)s1 > 76.9 µM
COc1ccc(NC2=NCC(=O)N2c2ccccc2F)c(OC)c1 > 76.9 µM
O=C(c1ccccc1)c1ccc(OCC(O)CN2CCCCC2)cc1 (stereo not given) > 76.9 µM
O=C(NCc1ccco1)c1cc(-c2cccnc2)nc2ccc(Cl)cc12 > 76.9 µM
CCCOCC1CC2(SC(=Nc3ccc(C)cc3)NC2=O)C(=O)O1 (stereo not given) > 76.9 µM
CCOc1c(C(N)=O)c(-c2ccccc2)c2c(=O)[nH]c3ccccc3n12 > 76.9 µM
COc1cc(/C=c2\sc3nc(-c4ccncc4)nn3c2=O)ccc1OC(C)=O > 76.9 µM
Cc1c2c(nc3nc4ccccc4n13)CC(C)(C)CC2=O > 76.9 µM
COCCn1nnnc1CN(CCCN1CCOCC1)Cc1cc2c(C)ccc(C)c2[nH]c1=O > 76.9 µM
CC(C)CC(=O)N1CCN(S(=O)(=O)c2ccc(F)cc2)CC1 > 76.9 µM
c1cncc(CNC2CCCc3ccccc32)c1 (stereo not given) > 76.9 µM
CCOC(=O)C1CCN(Cc2ccc(C(=O)OC)cc2)CC1 > 76.9 µM
Cn1c(=O)c2c(-c3ccccc3)n(-c3ccccc3O)cc2n(C)c1=O > 76.9 µM
CC1(C)Cc2c(sc3nc(-c4cc5ccccc5o4)n(N)c(=O)c23)CO1 > 76.9 µM
CCCCC(=O)Nc1sc2c(c1C(N)=O)CCC2 > 76.9 µM
CCOC(=O)Cc1csc2nc3sc(C)c(C)c3c(=O)n12 > 76.9 µM
COc1ccc(S(=O)(=O)N2CCCC(C(=O)N3CCCCCC3)C2)cc1 (stereo not given) > 76.9 µM
O=C(Nc1scc(-c2ccc(F)cc2)c1C(=O)O)c1ccco1 > 76.9 µM
COc1ccc(C(=O)Nc2ncc3c(n2)CC(c2ccco2)CC3=O)cc1 (stereo not given) > 76.9 µM
COc1ccccc1CNC(=O)CCNC(=O)Cn1ccc2ccccc2c1=O > 76.9 µM
O=C(Cc1cccs1)N1CCN(c2nc(-c3ccc(Cl)cc3)cs2)CC1 > 76.9 µM
CCCCCCn1c(N2CCN(c3ccccc3)CC2)nc2c1c(=O)n(C)c(=O)n2C > 76.9 µM
CCOc1ncccc1C(=O)Nc1ccc2c(C)cc(=O)oc2c1 > 76.9 µM
O=C(c1cccc(Cl)c1)N1CCN(Cc2ccncc2)CC1 > 76.9 µM
COCCn1nnnc1CN1C2CCCC1CC(NC(C)=O)C2 (stereo not given) > 76.9 µM
COC(=O)c1cccc(NC(=O)C2COc3ccccc3O2)c1 (stereo not given) > 76.9 µM
O=C(CSc1nc(-c2ccco2)cc(C(F)(F)F)n1)N1CCSCC1 > 76.9 µM
Cc1ccc(S(=O)(=O)N(Cc2ccc(F)cc2)Cc2ccco2)cc1 > 76.9 µM
N#Cc1cc2c(nc1SCc1ccncc1)CCC2 > 76.9 µM
O=C(NCCC1=CCCCC1)c1cnccn1 > 76.9 µM
c1ccc(Nc2ncnc3c2oc2ccccc23)cc1 > 76.9 µM
Cc1cc(C)c2nc(N)sc2c1 > 76.9 µM
CCOc1cccc(/C(O)=C2/C(=O)C(=O)N(CCN3CCOCC3)C2c2cccnc2)c1 (stereo not given) > 76.9 µM
CC(=O)c1ccc(NC(=O)C2CCC(C)NC2=O)cc1 (stereo not given) > 76.9 µM
CCS(=O)(=O)NCCCc1ccccc1 > 76.9 µM
CCOCCCNC(=O)C(C)NS(=O)(=O)c1ccc(C)cc1 (stereo not given) > 76.9 µM
CCSc1nnc(NC(=O)c2cccc(OCc3c(C)noc3C)c2)s1
CCn1c(=O)cc(SCC(=O)NCc2ccccn2)c2ccccc21 > 76.9 µM
CCS(=O)(=O)Nc1ccc(Cc2ccncc2)cc1 > 76.9 µM
CC1(C)Cc2c(c(=S)nc(-c3ccccc3)n2CCO)CO1 > 76.9 µM
COc1ccc(N2C(=O)NC3CC2(C)Oc2ccccc23)cc1OC (stereo not given) > 76.9 µM
CC(C)OCCCNC(=O)NC12CC3CC(CC(C3)C1)C2 > 76.9 µM
COc1ccc(CNC(=O)CN2CCC(C(=O)c3ccc(OC)cc3)CC2)cc1 > 76.9 µM
CCCOC(=O)c1ccc(Nc2cc(C)nc3ncnn23)cc1 > 76.9 µM
COc1ccc2c(c1)C1CC(C)(NC(=O)C1C(=O)c1ccccc1)O2 (stereo not given) > 76.9 µM
CCN(CC)C(=O)CSc1nnc(-c2ccc(F)cc2)n1N > 76.9 µM
O=C(c1ccc(Cl)cc1)c1ccc(OCC(=O)N2CCOCC2)cc1 > 76.9 µM
